Consider 40 sequences from the supplement of paper PMC7826260.

This is one part of the list. Each Rep nickase domain was tested in vitro on the same pool of single strands (3 µM enzyme, 1 h, 37 °C); shown is the middle of each 90-letter strand. A value is the log2 ratio of uncut reads to the pool without enzyme; the lower, the more was cut; hits are not called. Shares of all reads are compared; where an enzyme cuts many sequences, the uncut ones exceed 0.

This experiment deals with T1, Rep nickase domain of tomato golden mosaic virus.
T1 sequence (residues 1-124, tag not shown): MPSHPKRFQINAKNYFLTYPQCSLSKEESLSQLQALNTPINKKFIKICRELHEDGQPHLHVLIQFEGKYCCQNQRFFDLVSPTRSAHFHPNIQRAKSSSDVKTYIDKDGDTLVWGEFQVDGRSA
As to the kind of experiment: uncleaved DNA left, log2 of reads against the no-enzyme library (log2 ratio); higher = less cleavage (more negative = more Rep cleavage of the k-mer); sequences stand for … in CTCGTCCG…ACCGGAGA
As to the method:
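A pool of 90-nt single-stranded DNAs with seven random bases just before the constant AC of the nick site (name = the seven bases) was cut by 3 µM recombinant His6-SUMO-tagged Rep nickase domain (300 nM DNA, 50 mM HEPES pH 8.0, 50 mM NaCl, 1 mM MnCl2, 1 h, 37 °C, three replicates). Uncut DNA was amplified and sequenced.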
For ATATGGA, the “uncleaved DNA left (log2)” value was -0.00162.

Consider TGCGAGA, for which the “uncleaved DNA left (log2)” value is 0.15. As for TTTGAGT, the “uncleaved DNA left (log2)” value was -0.0162.

In the case of CACTAGA, the “uncleaved DNA left (log2)” value turned out to be 0.161.

GGGAGTC: the “uncleaved DNA left (log2)” value stood at 0.0118. With GCTGGAT, the “uncleaved DNA left (log2)” value was -0.0301. For TCACTCA the value was -0.0733; for ATGACCC, -0.0409; for GATAGGA, 0.127. GCCTGAC: the “uncleaved DNA left (log2)” value is -0.0539.

For ACATTAT, the “uncleaved DNA left (log2)” value was -0.00143. For GCCCAGT, the “uncleaved DNA left (log2)” value was determined as 0.0642. With ACATGGT, the “uncleaved DNA left (log2)” value worked out at 0.0959.

For GGTCGGG, the “uncleaved DNA left (log2)” value amounted to 0.0231. For the sequence TAGCTTC, the “uncleaved DNA left (log2)” value is -0.0229. As for AGGATCG, the “uncleaved DNA left (log2)” value was -0.0232. With ATAACTC, the “uncleaved DNA left (log2)” value is -0.105. For TTCCACG the value was -0.148; for TCTTTCT, -0.108. As for TACGCAC, the “uncleaved DNA left (log2)” value is -0.0716.

On to GTATCAT, for which the “uncleaved DNA left (log2)” value is -0.00141.

Regarding GGCCATT, the “uncleaved DNA left (log2)” value is -0.106. For TACAAAT the value was -0.0166. The value for CCTTCCC was -0.287; that for TATCAAT was 0.0707.

For the sequence TTTGAAC, the “uncleaved DNA left (log2)” value was -0.0789. With ACTGATG, the “uncleaved DNA left (log2)” value is 0.0352. With TAAGCGG, the “uncleaved DNA left (log2)” value turned out to be 0.155. In the case of GAGTGGC, the “uncleaved DNA left (log2)” value was determined as 0.0236. The value for TTTGGTA was -0.0227. On to AACCAAC, for which the “uncleaved DNA left (log2)” value was -0.156. For the sequence GGGTGCC, the “uncleaved DNA left (log2)” value came out at 0.0191.

Take TCGTCAT: the “uncleaved DNA left (log2)” value is -0.138. With TCGTGCC, the “uncleaved DNA left (log2)” value was -0.28. Take AGGAGGG: the “uncleaved DNA left (log2)” value was 0.0743.

On to TCAGATT, for which the “uncleaved DNA left (log2)” value stood at 0.0379. As for GGGGGCC, the “uncleaved DNA left (log2)” value came to 0.0497. For CGTAAAC, the “uncleaved DNA left (log2)” value is 0.068. For CTGGTTG, the “uncleaved DNA left (log2)” value was 0.0362. As to AGGCCGG, the “uncleaved DNA left (log2)” value came out at 0.159.
